In article PMC6188873 one finds binding data, which are given here for 2 substances.

Protein sequences, listed by entry. Tags and fused reporters are not part of them.
UniProt Q96KP1: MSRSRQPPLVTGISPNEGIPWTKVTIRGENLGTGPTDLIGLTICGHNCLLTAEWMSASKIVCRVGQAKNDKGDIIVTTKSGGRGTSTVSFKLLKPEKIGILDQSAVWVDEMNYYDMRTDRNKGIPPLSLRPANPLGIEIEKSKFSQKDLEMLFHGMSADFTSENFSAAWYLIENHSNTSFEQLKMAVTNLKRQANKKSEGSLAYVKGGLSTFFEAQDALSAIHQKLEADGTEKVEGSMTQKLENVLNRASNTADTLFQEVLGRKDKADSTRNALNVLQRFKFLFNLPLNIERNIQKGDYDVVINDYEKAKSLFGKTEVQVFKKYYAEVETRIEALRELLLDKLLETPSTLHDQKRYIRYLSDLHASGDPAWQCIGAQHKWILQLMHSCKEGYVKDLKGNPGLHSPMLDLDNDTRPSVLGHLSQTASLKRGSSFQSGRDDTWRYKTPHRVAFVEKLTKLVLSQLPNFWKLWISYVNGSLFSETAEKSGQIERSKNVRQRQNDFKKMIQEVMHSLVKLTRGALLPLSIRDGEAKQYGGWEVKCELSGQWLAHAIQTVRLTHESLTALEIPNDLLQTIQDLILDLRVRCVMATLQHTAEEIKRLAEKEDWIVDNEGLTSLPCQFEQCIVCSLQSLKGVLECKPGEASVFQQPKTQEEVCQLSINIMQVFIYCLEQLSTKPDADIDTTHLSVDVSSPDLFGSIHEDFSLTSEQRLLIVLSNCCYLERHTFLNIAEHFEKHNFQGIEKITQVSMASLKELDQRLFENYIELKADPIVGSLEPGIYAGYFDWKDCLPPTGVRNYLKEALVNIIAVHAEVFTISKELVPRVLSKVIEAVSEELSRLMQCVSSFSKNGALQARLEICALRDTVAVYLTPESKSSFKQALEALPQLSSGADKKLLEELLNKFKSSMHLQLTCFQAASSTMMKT
UniProt Q86WV6: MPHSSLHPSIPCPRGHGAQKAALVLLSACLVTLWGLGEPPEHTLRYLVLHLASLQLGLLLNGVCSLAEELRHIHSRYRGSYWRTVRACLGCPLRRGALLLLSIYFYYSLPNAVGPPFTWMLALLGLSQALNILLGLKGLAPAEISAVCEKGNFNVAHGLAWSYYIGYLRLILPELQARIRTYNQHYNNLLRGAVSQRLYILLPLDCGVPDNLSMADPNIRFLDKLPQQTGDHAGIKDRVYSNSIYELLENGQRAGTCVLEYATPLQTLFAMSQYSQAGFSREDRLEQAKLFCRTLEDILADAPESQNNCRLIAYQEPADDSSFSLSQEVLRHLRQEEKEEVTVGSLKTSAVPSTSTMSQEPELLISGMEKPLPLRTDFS
UniProt Q6PF93: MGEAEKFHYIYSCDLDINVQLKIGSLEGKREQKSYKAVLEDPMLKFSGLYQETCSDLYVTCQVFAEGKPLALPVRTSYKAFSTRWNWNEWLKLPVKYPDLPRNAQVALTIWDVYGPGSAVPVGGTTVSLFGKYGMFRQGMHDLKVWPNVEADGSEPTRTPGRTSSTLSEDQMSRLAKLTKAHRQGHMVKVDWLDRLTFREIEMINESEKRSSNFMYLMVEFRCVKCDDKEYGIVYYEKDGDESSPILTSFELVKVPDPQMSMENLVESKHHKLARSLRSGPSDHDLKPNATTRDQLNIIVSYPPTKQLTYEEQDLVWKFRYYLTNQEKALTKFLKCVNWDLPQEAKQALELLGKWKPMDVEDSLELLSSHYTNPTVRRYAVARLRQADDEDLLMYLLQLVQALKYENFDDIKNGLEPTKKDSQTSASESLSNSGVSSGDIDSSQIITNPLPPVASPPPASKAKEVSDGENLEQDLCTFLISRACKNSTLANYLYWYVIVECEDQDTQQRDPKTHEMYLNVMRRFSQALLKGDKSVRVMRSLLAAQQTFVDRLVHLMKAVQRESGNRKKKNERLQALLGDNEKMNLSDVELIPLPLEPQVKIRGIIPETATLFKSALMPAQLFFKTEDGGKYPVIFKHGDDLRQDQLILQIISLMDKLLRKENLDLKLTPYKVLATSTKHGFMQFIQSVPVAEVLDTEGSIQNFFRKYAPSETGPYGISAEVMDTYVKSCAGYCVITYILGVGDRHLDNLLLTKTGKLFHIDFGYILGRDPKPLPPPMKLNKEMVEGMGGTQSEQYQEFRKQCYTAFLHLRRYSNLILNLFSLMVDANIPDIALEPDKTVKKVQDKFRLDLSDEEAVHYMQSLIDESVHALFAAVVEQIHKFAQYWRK

No constants are given. Whether binding was seen depends on the method and setting. Binding seen in cells or lysates may run through a third protein. Some results given as binding are weak or reduced against the parent protein; the word gives no strength.

One test concerns the target Sec5 (UniProt Q96KP1). Kind of test: co-IP; HEK293 cells (2x10^6) transfected with the indicated plasmids (5 μg each) for 24 h (Fig 6E also with knockdown of SNX8); NP40 lysis buffer (20 mM Tris-HCl, 150 mM NaCl, 1 mM EDTA, 1% Nonidet P-40); indicated antibody or control IgG with Protein-G sepharose, at least 2 hr; washed three times with lysis buffer containing 500 mM NaCl; immunoblot. (Immunoblotting shows a protein as a band on a membrane.)

The next test addresses T1, TRAPβ (UniProt P43308).
T1 sequence: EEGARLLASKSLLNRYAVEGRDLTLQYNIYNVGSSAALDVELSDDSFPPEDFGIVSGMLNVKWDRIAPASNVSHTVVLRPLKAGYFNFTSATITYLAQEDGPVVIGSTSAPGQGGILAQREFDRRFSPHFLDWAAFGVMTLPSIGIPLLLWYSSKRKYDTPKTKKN
The test is described as above.

In test [1] the target is T2, SNX8 (endogenous, mouse lung fibroblasts) (mouse (endogenous in MLFs)) (UniProt Q8CFD4).
T2 sequence: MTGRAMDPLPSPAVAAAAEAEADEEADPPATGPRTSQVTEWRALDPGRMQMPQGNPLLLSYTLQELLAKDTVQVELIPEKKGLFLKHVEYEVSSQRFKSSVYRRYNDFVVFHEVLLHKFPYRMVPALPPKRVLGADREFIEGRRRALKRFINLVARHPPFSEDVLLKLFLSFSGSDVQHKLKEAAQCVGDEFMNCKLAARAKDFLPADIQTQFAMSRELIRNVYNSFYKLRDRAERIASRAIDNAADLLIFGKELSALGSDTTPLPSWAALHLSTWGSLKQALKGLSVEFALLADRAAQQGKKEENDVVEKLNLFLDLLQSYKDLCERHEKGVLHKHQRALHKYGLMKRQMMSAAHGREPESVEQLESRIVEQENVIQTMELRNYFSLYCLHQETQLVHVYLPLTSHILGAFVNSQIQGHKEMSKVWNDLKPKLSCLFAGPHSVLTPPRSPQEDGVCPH
The test can be described thus: co-IP; endogenous co-immunoprecipitation from MLFs (3x10^7), un-infected or early after HSV-1 infection; NP40 lysis buffer; Protein-G sepharose; washes with 500 mM NaCl; immunoblot.

In the case of “MITA (also called STING, MPYS, ERIS, or TMEM173) (from UniProt Q86WV6 1-379)”, the binding entry with Sec5 and with TRAPβ was “binds” in each case.
Regarding “VPS34 (endogenous, mouse lung fibroblasts) (from UniProt Q6PF93 1-887) (enzyme)”, in test [1], the binding result is given as “binds”.
